Assay results reported in patent US20260166128A1, “HUMAN AMYLIN ANALOG, AND DERIVATIVE THEREOF AND USE THEREOF” (priority 2022, published 2026).
Part of at least one peptide drawing is inferred or uncertain, most often the ends. Numbered stars: 1 amine (or outer) side, 2 acyl side, 3 side chain; on linkers, the order of the positions; unused ones are H or OH. Bridge positions count the residues as written; N and C are the ends. Side chains are listed from the residue outwards. Peptide text beside a SMILES is read from it. * marks the point of attachment. C20 diacid = O=C(O)CCCCCCCCCCCCCCCCCCC(=O)*; γGlu = O=C(O)[C@H](CCC(=O)[*:2])N[*:1]; AEEA = NCCOCCOCC(=O)O

Assay: Freeze-thaw stability of derivatives (freeze-thaw yield by liquid chromatography)
Format: physicochemical
Details: for Dissolution property: appearance after dissolution at 0.2 mg/ml in 20 mM phosphate buffer solution (PB) (pH 7.0); for Freeze storage property: appearance after overnight storage at −20° C. and thawing to room temperature, 0.2 mg/ml in 20 mM PB (pH 7.0); for Freeze storage yield: concentration of polypeptide after freezing and thawing / concentration before, by liquid chromatography, −20° C. overnight
Method: The freeze-dried powder of the polypeptide analog derivative prepared in Example 1 was mixed with a buffer solution according to a mass-volume ratio of 0.2 mg/ml, the polypeptide was dissolved with 20 mM phosphate buffer solution (PB) (pH 7.0), the sample was stored at −20° C. for overnight storage, and then the sample was taken out to be restored to room temperature for thawing. During the experiment, property changes of the polypeptide after dissolution and freezing and thawing were observed and recorded respectively, and concentrations of the polypeptide before and after the freezing and thawing were detected by the following liquid chromatography method: Materials and equipment: high-performance liquid chromatographic instrument (Agilent 1200), ultrapure water (18.2 MΩ self-manufactured ultrapure water), acetonitrile (HPLC grade), and trifluoroacetic acid (HPLC grade); and reversed-phase chromatographic column: […] A sample to be tested was centrifuged at 10,000 rpm and 4° C. for 3 minutes, and a supernatant was taken and added into a liquid-phase sample injection bottle. […] A freeze-thaw yield was calculated by the following formula: freeze-thaw yield=concentration of polypeptide after the freezing and thawing/concentration of polypeptide before the freezing and thawing.

Row | Structure (SMILES) | Dissolution property | Freeze storage property | Freeze storage yield [%]
1 | CC[C@H](C)[C@H](NC(=O)[C@H](CCCCNC(=O)COCCOCCNC(=O)COCCOCCNC(=O)CC[C@H](NC(=O)CCCCCCCCCCCCCCCCCCC(=O)O)C(=O)O)NC(=O)CNC(=O)[C@H](CC(C)C)NC(=O)[C@H](CC(N)=O)NC(=O)[C@H](CC(N)=O)NC(=O)[C@H](CO)NC(=O)[C@H](CO)NC(=O)[C@H](Cc1c[nH]cn1)NC(=O)[C@H](CCCNC(=N)N)NC(=O)[C@H](CC(C)C)NC(=O)[C@H](Cc1ccccc1)NC(=O)[C@H](CCC(=O)O)NC(=O)[C@H](C)NC(=O)[C@H](CC(C)C)NC(=O)[C@H](CCCNC(=N)N)NC(=O)[C@H](CCC(N)=O)NC(=O)[C@@H](NC(=O)[C@H](C)NC(=O)[C@@H]1CSSC[C@H](NC(=O)[C@@H](N)CCCNC(=N)N)C(=O)N[C@@H](CC(N)=O)C(=O)N[C@@H]([C@@H](C)O)C(=O)N[C@@H](C)C(=O)N[C@@H]([C@@H](C)O)C(=O)N1)[C@@H](C)O)C(=O)N[C@@H](CC(C)C)C(=O)N1CCC[C@H]1C(=O)N1CCC[C@H]1C(=O)N[C@H](C(=O)N[C@@H](CC(N)=O)C(=O)N[C@H](C(=O)NCC(=O)N[C@@H](CO)C(=O)N[C@@H](CC(N)=O)C(=O)N[C@H](C(=O)N1CCC[C@H]1C(N)=O)[C@@H](C)O)C(C)C)[C@@H](C)O [PD005] (H-RCNTATCATQRLAEFLRHSSNNLGK([AEEA-AEEA-γGlu-C20 diacid])ILPPTNVGSNTP-NH2; disulfide 2-7) | Clear | Clear | 
2 | CC[C@H](C)[C@H](NC(=O)[C@H](CCCCNC(=O)CC[C@H](NC(=O)CCCCCCCCCCCCCCCCCCC(=O)O)C(=O)O)NC(=O)CNC(=O)[C@H](CC(C)C)NC(=O)[C@H](CC(N)=O)NC(=O)[C@H](CC(N)=O)NC(=O)[C@H](CO)NC(=O)[C@H](CO)NC(=O)[C@H](Cc1c[nH]cn1)NC(=O)[C@H](CCCNC(=N)N)NC(=O)[C@H](CC(C)C)NC(=O)[C@H](Cc1ccccc1)NC(=O)[C@H](CCC(=O)O)NC(=O)[C@H](C)NC(=O)[C@H](CC(C)C)NC(=O)[C@H](CCCNC(=N)N)NC(=O)[C@H](CCC(N)=O)NC(=O)[C@@H](NC(=O)[C@H](C)NC(=O)[C@@H]1CSSC[C@H](NC(=O)[C@@H](N)CCCNC(=N)N)C(=O)N[C@@H](CC(N)=O)C(=O)N[C@@H]([C@@H](C)O)C(=O)N[C@@H](C)C(=O)N[C@@H]([C@@H](C)O)C(=O)N1)[C@@H](C)O)C(=O)N[C@@H](CC(C)C)C(=O)N1CCC[C@H]1C(=O)N1CCC[C@H]1C(=O)N[C@H](C(=O)N[C@@H](CC(N)=O)C(=O)N[C@H](C(=O)NCC(=O)N[C@@H](CO)C(=O)N[C@@H](CC(N)=O)C(=O)N[C@H](C(=O)N1CCC[C@H]1C(N)=O)[C@@H](C)O)C(C)C)[C@@H](C)O [PD010] (H-RCNTATCATQRLAEFLRHSSNNLGK([γGlu-C20 diacid])ILPPTNVGSNTP-NH2; disulfide 2-7) | Clear | Clear | 
3 | CC[C@H](C)[C@H](NC(=O)[C@@H]1CCCN1C(=O)[C@H](CCCCNC(=O)CC[C@H](NC(=O)CCCCCCCCCCCCCCCCCCC(=O)O)C(=O)O)NC(=O)[C@H](CC(C)C)NC(=O)[C@H](CC(N)=O)NC(=O)[C@H](CC(N)=O)NC(=O)[C@H](CO)NC(=O)[C@H](CO)NC(=O)[C@H](Cc1c[nH]cn1)NC(=O)[C@H](CCCNC(=N)N)NC(=O)[C@H](CC(C)C)NC(=O)[C@H](Cc1ccccc1)NC(=O)[C@H](CCC(=O)O)NC(=O)[C@H](C)NC(=O)[C@H](CC(C)C)NC(=O)[C@H](CCCNC(=N)N)NC(=O)[C@H](CCC(N)=O)NC(=O)[C@@H](NC(=O)[C@H](C)NC(=O)[C@@H]1CSSC[C@H](NC(=O)[C@@H](N)CCCNC(=N)N)C(=O)N[C@@H](CC(N)=O)C(=O)N[C@@H]([C@@H](C)O)C(=O)N[C@@H](C)C(=O)N[C@@H]([C@@H](C)O)C(=O)N1)[C@@H](C)O)C(=O)N[C@@H](CC(C)C)C(=O)N[C@@H](CO)C(=O)N[C@@H](CO)C(=O)N[C@H](C(=O)N[C@@H](CC(N)=O)C(=O)N[C@H](C(=O)NCC(=O)N[C@@H](CO)C(=O)N[C@@H](CC(N)=O)C(=O)N[C@H](C(=O)N1CCC[C@H]1C(N)=O)[C@@H](C)O)C(C)C)[C@@H](C)O [PD011] (H-RCNTATCATQRLAEFLRHSSNNLK([γGlu-C20 diacid])PILSSTNVGSNTP-NH2; disulfide 2-7) | Clear |  | 15.33
4 | CC[C@H](C)[C@H](NC(=O)[C@H](C)NC(=O)[C@H](CCCCNC(=O)CC[C@H](NC(=O)CCCCCCCCCCCCCCCCCCC(=O)O)C(=O)O)NC(=O)[C@H](CC(C)C)NC(=O)[C@H](CC(N)=O)NC(=O)[C@H](CC(N)=O)NC(=O)[C@H](CO)NC(=O)[C@H](CO)NC(=O)[C@H](Cc1c[nH]cn1)NC(=O)[C@H](CCCNC(=N)N)NC(=O)[C@H](CC(C)C)NC(=O)[C@H](Cc1ccccc1)NC(=O)[C@H](CCC(=O)O)NC(=O)[C@H](C)NC(=O)[C@H](CC(C)C)NC(=O)[C@H](CCCNC(=N)N)NC(=O)[C@H](CCC(N)=O)NC(=O)[C@@H](NC(=O)[C@H](C)NC(=O)[C@@H]1CSSC[C@H](NC(=O)[C@@H](N)CCCNC(=N)N)C(=O)N[C@@H](CC(N)=O)C(=O)N[C@@H]([C@@H](C)O)C(=O)N[C@@H](C)C(=O)N[C@@H]([C@@H](C)O)C(=O)N1)[C@@H](C)O)C(=O)N[C@@H](CC(C)C)C(=O)N1CCC[C@H]1C(=O)N[C@@H](CO)C(=O)N[C@H](C(=O)N[C@@H](CC(N)=O)C(=O)N[C@H](C(=O)NCC(=O)N[C@@H](CO)C(=O)N[C@@H](CC(N)=O)C(=O)N[C@H](C(=O)N1CCC[C@H]1C(N)=O)[C@@H](C)O)C(C)C)[C@@H](C)O [PD012] (H-RCNTATCATQRLAEFLRHSSNNLK([γGlu-C20 diacid])AILPSTNVGSNTP-NH2; disulfide 2-7) | Muddy | Muddy | 0.00
5 | CC[C@H](C)[C@H](NC(=O)[C@H](C)NC(=O)[C@H](CCCCNC(=O)CC[C@H](NC(=O)CCCCCCCCCCCCCCCCCCC(=O)O)C(=O)O)NC(=O)[C@H](CC(C)C)NC(=O)[C@H](CC(N)=O)NC(=O)[C@H](CC(N)=O)NC(=O)[C@H](CO)NC(=O)[C@H](CO)NC(=O)[C@H](Cc1c[nH]cn1)NC(=O)[C@H](CCCNC(=N)N)NC(=O)[C@H](CC(C)C)NC(=O)[C@H](Cc1ccccc1)NC(=O)[C@H](CCC(=O)O)NC(=O)[C@H](C)NC(=O)[C@H](CC(C)C)NC(=O)[C@H](CCCNC(=N)N)NC(=O)[C@H](CCC(N)=O)NC(=O)[C@@H](NC(=O)[C@H](C)NC(=O)[C@@H]1CSSC[C@H](NC(=O)[C@@H](N)CCCNC(=N)N)C(=O)N[C@@H](CC(N)=O)C(=O)N[C@@H]([C@@H](C)O)C(=O)N[C@@H](C)C(=O)N[C@@H]([C@@H](C)O)C(=O)N1)[C@@H](C)O)C(=O)N[C@@H](CC(C)C)C(=O)N[C@@H](CO)C(=O)N1CCC[C@H]1C(=O)N[C@H](C(=O)N[C@@H](CC(N)=O)C(=O)N[C@H](C(=O)NCC(=O)N[C@@H](CO)C(=O)N[C@@H](CC(N)=O)C(=O)N[C@H](C(=O)N1CCC[C@H]1C(N)=O)[C@@H](C)O)C(C)C)[C@@H](C)O [PD013] (H-RCNTATCATQRLAEFLRHSSNNLK([γGlu-C20 diacid])AILSPTNVGSNTP-NH2; disulfide 2-7) | Clear | Muddy | 18.78
